Test results as given in patent US20240165252A1, “ANTIBODY-DRUG CONJUGATE AND MEDICAL USE THEREOF” (Shanghai Hansoh Biomedical Co., Ltd., priority 2021, published 2024).

Assays:
NCI-H929 cells = experiment: Killing activity of antibody drug conjugates on tumor cells (CellTiter-Glo); format: cell-based
Description: In order to test the killing effect of the antibody drug conjugates of the present disclosure on tumor cells, The BCMA high expression cell line NCI-H929 cells (ATCC deposit number CRL-9068) were used for evaluation. NCI-H929 cells were collected, centrifuged and counted. The cell density was adjusted to 1×10^5 cells/mL with complete medium, and the cells were plated in 60 wells of a white 96-well plate at 100 μL per well with a cell number of 10,000 cells/well. The rest peripheral wells were added with 100 μL DPBS per well. The cell plate was placed in a 37° C., 5% CO2 incubator and cultured overnight. On the second day of the experiment, the antibody-drug conjugate working solution was prepared with complete medium in a 96-well V-bottom plate, starting from a concentration of 133 μM (5-fold dilution and 9 concentrations). After completion of the preparation, the solution was added to a white 96-well plate at 80 μL per well in duplicates. The cell plate was placed in a 37° C., 5% CO2 incubator and the culture lasted for 72 hours. On the fifth day of the experiment, the plate was detected and read. The cell culture plate was taken out. […] The mixture was shaken and mixed, placed in dark and let stand for 10 minutes, and then detected by using the luminescence program of the microplate reader. The IC50 values were calculated using GraphPad Prims software. […]

[1] = tested on: NCI-H929 transplanted tumors; experiment: Tumor killing activity in NCI-H929 transplanted tumors in mice; format: in vivo
Description: In order to further investigate the inhibition effect of the antibody drug conjugates on the proliferation of tumors formed in vivo, the anti-tumor effect of the antibody drug conjugates of the present disclosure was evaluated after formation of transplanted tumors with NCI-H929 (ATCC deposit number CRL-9068) cell line in mice. 10×10^6 NCI-H929 cells were injected subcutaneously into the back of 6-8 week-old immunodeficient nude mice (NOD-SCID). After 14 days, intravenous injection of the antibody drug conjugates via caudal vein were performed, at a frequency of once/week, continuous administration for two weeks at a dose of 3 mg/kg. Human IgG1 isotype control protein was used as the control at a dose of 3 mg/kg. There were 5 mice in each group of the control group or the administration group. The tumor inhibition rate was calculated by measuring the tumor volume, as follows:
Tumor inhibition rate TGI %=100%−(tumor volume of the administration group on day 14−tumor volume of the administration group on day 0)/(tumor volume of the control group on day 14−tumor volume of the control group on day 0).

B1: ADC2 (y = 4): antibody Ab2 conjugated with Compound D, drug load y determined to be 4 (conjugate)
heavy: QVQLVQSGAEVKKPGASVKVSCKASGYSFSDYEMHWVRQAPGQGLEWIGGIHPGSGGSAYNQKFKGRVTLTVDKSTSTAYMELSSLRSEDTAVYYCTRLDYGYSWAWFPYWGQGTLVTVSA[human IgG1 constant region left out]
light: EIVLTQSPATLSLSPGERATLSCSASSSVIYMNWYQQKPGQSPKIWIYGISNLASGVPARFSGSGSGTDFTLTISSLEPEDFAVYYCQQRSSYPLTFGGGTKVEIKRTVAAPSVFIFPPSDEQLKSGTASVVCLLNNFYPREAKVQWKVDNALQSGNSQESVTEQDSKDSTYSLSSTLTLSKADYEKHKVYACEVTHQGLSSPVTKSFNRGEC
What does the source list for B1?
Killing activity on tumor cells in vitro (in words) (NCI-H929 cells): good killing activity; Tumor inhibition effect in vivo (in words) ([1]; NCI-H929 transplanted tumors, 3 mg/kg): good tumor inhibition effect; Tumor inhibition rate (%) ([1]; NOD-SCID mice, 3 mpk intravenous, once/week for two weeks, day 14): 164.67%
